The record followed here is publication PMC5343488, “Epilepsy and intellectual disability linked protein Shrm4 interaction with GABABRs shapes inhibitory neurotransmission” (Nature Communications, 2017).

By UniProt entry, the sequences of proteins in these tests, tags left out. Where a name states a change or a piece, a line headed by the entry shows the natural chain unless it says otherwise. Residues count along the entry.
UniProt Q9UBS5, residues 20-921: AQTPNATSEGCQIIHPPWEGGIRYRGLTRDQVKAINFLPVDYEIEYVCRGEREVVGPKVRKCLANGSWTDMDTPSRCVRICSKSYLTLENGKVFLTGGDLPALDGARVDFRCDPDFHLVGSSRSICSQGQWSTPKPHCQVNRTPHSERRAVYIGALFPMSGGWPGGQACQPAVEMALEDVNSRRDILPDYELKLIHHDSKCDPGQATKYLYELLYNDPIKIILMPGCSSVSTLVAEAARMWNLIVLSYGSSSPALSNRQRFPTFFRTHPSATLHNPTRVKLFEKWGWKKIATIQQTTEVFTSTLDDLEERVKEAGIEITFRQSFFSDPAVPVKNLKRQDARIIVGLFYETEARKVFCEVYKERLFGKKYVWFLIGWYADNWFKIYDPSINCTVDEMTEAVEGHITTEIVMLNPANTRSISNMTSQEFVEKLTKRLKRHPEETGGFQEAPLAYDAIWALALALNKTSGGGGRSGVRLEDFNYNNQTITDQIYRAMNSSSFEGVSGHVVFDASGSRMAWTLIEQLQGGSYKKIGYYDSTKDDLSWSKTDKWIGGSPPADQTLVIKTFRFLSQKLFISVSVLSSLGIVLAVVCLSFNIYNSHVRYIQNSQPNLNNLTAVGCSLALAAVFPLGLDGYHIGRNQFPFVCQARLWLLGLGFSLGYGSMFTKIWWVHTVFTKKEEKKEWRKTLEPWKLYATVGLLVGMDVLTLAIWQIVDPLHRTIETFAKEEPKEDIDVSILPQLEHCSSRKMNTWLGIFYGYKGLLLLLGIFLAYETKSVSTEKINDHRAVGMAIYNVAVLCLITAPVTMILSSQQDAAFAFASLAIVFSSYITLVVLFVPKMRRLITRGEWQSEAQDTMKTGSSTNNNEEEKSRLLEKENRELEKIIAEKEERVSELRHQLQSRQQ
UniProt Q6QLM7: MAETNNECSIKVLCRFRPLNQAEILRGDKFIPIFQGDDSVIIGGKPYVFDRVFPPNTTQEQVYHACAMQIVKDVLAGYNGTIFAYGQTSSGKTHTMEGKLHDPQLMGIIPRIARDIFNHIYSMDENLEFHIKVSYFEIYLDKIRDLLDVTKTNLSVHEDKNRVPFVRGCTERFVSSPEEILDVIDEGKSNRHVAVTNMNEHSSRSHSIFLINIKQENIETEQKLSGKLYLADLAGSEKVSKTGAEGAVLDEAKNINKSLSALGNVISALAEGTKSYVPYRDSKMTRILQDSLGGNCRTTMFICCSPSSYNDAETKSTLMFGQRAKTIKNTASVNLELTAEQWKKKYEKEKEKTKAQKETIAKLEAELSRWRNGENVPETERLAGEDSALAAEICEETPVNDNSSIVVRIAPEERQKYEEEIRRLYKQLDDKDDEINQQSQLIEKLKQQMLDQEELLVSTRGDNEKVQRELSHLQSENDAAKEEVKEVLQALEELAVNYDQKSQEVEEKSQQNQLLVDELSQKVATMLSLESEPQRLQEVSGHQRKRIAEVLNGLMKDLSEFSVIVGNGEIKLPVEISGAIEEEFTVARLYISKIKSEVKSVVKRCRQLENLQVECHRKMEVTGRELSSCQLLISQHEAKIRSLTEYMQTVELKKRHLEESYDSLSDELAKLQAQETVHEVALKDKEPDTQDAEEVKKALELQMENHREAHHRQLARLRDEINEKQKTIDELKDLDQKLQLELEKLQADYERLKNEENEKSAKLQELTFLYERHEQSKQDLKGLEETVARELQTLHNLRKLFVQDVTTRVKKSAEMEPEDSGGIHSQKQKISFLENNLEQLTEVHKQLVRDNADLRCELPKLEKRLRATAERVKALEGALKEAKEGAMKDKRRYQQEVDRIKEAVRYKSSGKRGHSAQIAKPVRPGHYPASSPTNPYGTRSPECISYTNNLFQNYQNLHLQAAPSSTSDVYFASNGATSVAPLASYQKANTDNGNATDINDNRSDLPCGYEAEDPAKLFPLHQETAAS
UniProt Q2PQA9: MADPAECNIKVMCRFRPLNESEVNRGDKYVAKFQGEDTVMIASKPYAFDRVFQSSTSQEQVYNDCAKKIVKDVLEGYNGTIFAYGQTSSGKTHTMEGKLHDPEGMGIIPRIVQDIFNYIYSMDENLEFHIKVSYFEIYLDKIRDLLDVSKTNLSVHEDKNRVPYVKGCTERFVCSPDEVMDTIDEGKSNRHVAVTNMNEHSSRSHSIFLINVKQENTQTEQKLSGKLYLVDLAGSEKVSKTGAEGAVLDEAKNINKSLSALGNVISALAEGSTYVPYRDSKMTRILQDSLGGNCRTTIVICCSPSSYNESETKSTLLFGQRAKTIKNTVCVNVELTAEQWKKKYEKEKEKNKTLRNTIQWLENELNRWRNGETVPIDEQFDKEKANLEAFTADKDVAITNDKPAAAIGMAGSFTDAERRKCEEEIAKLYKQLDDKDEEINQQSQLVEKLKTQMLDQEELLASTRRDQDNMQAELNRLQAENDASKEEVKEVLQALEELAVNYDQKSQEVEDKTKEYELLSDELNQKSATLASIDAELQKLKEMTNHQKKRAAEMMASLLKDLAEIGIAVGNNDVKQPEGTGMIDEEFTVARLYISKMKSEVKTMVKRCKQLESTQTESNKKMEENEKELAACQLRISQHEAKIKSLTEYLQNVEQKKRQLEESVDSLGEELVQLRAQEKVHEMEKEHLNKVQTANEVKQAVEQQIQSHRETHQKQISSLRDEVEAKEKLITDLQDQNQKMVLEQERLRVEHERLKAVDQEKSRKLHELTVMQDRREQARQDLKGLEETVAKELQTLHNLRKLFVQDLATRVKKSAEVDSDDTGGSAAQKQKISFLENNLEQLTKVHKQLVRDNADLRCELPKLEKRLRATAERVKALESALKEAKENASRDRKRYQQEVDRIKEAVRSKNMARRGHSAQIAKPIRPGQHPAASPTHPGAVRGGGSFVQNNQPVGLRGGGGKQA

One test concerns the target T1, GFP-Shrm4 (human) (UniProt Q9ULL8).
T1 sequence: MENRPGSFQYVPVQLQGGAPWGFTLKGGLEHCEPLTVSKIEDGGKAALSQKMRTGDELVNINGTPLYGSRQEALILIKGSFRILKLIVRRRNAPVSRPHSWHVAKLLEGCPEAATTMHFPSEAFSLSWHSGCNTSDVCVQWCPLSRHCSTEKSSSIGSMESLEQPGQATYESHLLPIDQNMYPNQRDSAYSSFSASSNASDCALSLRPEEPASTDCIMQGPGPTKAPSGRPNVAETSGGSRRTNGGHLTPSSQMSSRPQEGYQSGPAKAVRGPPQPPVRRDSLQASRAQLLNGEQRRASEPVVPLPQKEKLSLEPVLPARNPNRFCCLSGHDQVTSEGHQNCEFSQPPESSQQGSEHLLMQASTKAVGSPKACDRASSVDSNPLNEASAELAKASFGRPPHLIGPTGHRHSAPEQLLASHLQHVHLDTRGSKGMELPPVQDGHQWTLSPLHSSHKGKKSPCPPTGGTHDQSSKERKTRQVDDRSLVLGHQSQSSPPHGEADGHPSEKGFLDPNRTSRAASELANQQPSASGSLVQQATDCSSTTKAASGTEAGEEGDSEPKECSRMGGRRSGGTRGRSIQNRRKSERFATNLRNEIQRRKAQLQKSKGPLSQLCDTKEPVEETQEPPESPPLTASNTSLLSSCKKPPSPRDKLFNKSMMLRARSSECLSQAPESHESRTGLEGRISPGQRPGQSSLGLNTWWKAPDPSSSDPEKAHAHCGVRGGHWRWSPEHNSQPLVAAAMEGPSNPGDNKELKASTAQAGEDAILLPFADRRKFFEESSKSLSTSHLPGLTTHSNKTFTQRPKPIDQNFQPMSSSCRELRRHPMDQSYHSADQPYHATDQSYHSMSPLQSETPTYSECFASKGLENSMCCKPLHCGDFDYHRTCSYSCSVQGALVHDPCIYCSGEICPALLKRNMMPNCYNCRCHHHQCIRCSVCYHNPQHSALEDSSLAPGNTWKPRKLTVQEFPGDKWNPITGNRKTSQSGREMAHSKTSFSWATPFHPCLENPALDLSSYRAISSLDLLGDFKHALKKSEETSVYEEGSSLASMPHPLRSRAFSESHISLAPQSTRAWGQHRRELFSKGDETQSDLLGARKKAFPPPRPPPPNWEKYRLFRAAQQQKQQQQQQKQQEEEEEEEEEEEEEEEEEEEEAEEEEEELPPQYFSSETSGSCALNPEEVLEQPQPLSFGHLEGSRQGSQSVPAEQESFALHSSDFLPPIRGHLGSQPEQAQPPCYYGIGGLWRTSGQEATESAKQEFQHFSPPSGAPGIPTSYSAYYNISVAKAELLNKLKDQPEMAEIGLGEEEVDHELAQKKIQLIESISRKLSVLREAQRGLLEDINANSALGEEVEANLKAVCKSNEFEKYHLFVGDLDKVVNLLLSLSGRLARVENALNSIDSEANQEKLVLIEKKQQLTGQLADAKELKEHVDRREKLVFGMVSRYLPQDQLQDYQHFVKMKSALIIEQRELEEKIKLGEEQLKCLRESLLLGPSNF
Briefly: co-IP; lysates of transfected HEK293 cells; antibody to the tag of Shrm4 (HA, GFP, V5) at 4 °C overnight, protein A-agarose, western blot. For orientation: Immunoblotting shows a protein as a band on a membrane.

The target in test [1] is T2, Shrm4, endogenous in rat brain (rat (endogenous in brain)) (UniProt F1LVL5).
T2 sequence: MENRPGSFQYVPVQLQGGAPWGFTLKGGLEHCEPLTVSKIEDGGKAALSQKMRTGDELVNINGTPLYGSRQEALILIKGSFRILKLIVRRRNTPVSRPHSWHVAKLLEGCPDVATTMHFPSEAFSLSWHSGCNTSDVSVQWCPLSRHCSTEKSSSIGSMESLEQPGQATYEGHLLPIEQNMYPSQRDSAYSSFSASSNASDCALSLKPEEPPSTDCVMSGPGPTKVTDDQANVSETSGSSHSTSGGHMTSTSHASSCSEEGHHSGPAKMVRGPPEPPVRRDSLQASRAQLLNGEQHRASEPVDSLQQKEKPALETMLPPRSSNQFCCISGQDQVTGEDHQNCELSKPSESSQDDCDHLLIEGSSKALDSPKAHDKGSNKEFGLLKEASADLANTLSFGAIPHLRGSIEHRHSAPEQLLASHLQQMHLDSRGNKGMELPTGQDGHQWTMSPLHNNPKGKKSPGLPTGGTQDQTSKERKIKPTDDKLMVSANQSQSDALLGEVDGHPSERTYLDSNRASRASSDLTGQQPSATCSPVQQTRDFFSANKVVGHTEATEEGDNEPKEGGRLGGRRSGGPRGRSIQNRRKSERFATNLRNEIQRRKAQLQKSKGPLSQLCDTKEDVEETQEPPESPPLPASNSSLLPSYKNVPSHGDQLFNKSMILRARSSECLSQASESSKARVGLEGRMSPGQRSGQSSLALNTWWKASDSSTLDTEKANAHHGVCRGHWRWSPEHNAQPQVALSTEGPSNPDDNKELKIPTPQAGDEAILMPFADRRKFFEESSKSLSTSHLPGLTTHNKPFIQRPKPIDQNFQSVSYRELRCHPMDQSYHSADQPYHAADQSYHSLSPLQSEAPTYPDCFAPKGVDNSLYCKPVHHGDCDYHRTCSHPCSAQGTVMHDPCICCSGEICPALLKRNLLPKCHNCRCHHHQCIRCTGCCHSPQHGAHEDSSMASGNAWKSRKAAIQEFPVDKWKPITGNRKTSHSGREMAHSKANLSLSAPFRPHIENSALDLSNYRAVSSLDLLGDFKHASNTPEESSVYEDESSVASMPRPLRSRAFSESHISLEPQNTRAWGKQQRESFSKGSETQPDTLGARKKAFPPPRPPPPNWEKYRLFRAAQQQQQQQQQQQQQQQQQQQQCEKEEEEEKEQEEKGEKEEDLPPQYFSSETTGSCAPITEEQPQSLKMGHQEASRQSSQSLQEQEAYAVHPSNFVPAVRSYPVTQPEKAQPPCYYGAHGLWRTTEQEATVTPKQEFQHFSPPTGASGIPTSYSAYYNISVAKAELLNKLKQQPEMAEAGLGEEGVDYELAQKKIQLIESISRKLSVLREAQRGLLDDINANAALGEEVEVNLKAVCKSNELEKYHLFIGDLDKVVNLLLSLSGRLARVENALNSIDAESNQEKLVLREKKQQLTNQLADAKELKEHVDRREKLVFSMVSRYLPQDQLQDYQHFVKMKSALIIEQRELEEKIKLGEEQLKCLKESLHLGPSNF
Briefly: co-IP; adult rat brain extracts (50 mM TRIS-HCl, 200 mM NaCl, 1 mM EDTA, 1% NP40, 1% Triton X-100, pH 7.4); antibody (anti-Shrm4 or anti-GABAAR δ) at 4 °C overnight, protein A-agarose, western blot.

No constants are given. Whether binding was seen depends on the method and setting. Binding seen in cells or lysates may run through a third protein. Some entries that bind do so weakly or less than the wild type. For part of these data: Sequences can lack the tags named with a protein.

Take “GABAB1a-Δ922–961 (from UniProt Q9UBS5 20-921) (domain or fragment)”: the binding result with GFP-Shrm4 (human) is “binds”.

In the case of “KIF5A, endogenous in rat brain (from UniProt Q6QLM7 1-1027)”, in test [1], the binding entry was “no binding”.

Take “KIF5B, endogenous in rat brain (from UniProt Q2PQA9 1-963)”: in test [1], the binding entry is “no binding”.
